We go through 34 sequences from publication PMC5700166.

The entries are a selection whose mix differs from that of the whole data set. For some of these results: The list includes weakly bound sequences.

What all share (assay): protein-binding microarray (PBM)
Holding throughout (settings): PBM: ~300 nM protein, 6 mM HEPES pH 7.8, 80 mM KCl, 0.5 mM EDTA, 0.5 mM EGTA, 6% glycerol, 35 ng/ul poly-dIdC, 1% milk, 1 h, room temperature; Ap Aiptasia and Nv Nematostella (sea anemones) / Co Capsaspora / Aq Amphimedon (sponge) / Dm Drosophila / Hu human; RHD is the Rel homology domain; high values mean tight binding; most listed sequences are background and not binding sites; double strand, one strand shown

One assay concerns the target T1, GST-Ap-NF-kB RHD (UniProt A0A913YAJ5).
T1 sequence: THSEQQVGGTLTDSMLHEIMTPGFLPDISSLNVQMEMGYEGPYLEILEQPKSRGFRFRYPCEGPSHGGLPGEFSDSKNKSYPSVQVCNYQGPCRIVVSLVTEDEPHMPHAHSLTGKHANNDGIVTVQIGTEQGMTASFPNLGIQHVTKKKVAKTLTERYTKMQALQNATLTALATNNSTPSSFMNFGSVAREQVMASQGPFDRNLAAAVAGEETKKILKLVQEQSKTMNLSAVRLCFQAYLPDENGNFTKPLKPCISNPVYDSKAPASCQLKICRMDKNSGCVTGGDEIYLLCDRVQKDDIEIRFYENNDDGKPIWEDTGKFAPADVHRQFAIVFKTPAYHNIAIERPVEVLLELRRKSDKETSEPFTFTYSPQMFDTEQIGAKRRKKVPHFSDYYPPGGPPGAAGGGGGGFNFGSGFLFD

For another assay, the target named is T2, GST-Dm-Relish (UniProt Q94527).
T2 sequence: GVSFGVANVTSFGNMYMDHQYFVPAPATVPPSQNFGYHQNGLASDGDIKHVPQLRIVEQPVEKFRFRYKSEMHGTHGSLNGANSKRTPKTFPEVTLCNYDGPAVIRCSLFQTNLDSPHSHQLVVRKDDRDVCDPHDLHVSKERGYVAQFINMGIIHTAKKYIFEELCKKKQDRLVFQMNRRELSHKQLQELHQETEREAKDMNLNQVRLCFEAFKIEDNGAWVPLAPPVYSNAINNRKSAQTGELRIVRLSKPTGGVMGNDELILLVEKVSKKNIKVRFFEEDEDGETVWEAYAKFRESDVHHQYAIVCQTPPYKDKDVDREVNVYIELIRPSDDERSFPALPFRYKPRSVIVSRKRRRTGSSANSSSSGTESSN

The next assay has as its target T3, GST-Aq-NF-kB (UniProt A9Y5G7).
T3 sequence: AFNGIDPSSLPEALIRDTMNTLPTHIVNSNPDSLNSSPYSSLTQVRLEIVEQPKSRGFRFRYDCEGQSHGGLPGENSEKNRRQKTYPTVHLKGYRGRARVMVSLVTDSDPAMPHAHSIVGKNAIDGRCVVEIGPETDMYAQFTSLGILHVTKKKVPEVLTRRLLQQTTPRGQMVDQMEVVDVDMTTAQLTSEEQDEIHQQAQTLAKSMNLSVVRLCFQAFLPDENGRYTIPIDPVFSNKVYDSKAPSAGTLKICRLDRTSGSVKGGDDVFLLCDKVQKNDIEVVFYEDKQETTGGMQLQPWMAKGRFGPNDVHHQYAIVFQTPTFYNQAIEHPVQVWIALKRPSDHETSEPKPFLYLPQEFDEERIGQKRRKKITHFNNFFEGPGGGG

The target in assay [1] is T4, GST-Nv-NF-kB (Cys allele) (UniProt E5G601).
T4 sequence: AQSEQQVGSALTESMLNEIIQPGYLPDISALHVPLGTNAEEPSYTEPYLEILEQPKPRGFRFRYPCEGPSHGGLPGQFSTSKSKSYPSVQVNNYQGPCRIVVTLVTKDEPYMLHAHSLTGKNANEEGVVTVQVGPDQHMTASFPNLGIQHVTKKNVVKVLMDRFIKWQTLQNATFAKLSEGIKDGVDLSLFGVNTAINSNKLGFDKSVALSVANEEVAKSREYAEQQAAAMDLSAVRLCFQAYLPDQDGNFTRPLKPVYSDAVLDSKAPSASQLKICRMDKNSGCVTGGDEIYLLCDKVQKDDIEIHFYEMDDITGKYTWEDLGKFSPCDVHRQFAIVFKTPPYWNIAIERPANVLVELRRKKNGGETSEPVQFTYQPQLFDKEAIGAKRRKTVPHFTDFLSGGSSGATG

On to “CCGATTAACATCAAAAAATCCCATGATGTTAATCGGGTCTTGATTCGCTTGACGCTGCTG”, for which, in the assay with GST-Ap-NF-kB RHD, the binding signal turned out to be 4.84 z-score.
Regarding “CCGATTAACATCAGGTAATTTACTGATGTTAATCGGGTCTTGATTCGCTTGACGCTGCTG”, in the assay with GST-Ap-NF-kB RHD, the binding signal was 0.504 z-score.
Regarding “CCGATTAACATCAGGGAAATACCTGATGTTAATCGGGTCTTGATTCGCTTGACGCTGCTG”, the binding signal with GST-Dm-Relish was 8.42 z-score; with GST-Aq-NF-kB, 9.82 z-score.
Turning to “CCGATTAACATCACTTTCCCCCCTGATGTTAATCGGGTCTTGATTCGCTTGACGCTGCTG”, the binding signal in the assay with GST-Ap-NF-kB RHD turned out to be 5.84 z-score.
On to “CCGATTAACATCAGGGGTCCCCATGATGTTAATCGGGTCTTGATTCGCTTGACGCTGCTG”, for which the binding signal turned out to be 7.31 z-score with GST-Dm-Relish and 3.6 z-score with GST-Aq-NF-kB.
For “CCGATTAACATCATGTACGGGAATGATGTTAATCGGGTCTTGATTCGCTTGACGCTGCTG”, the results for the binding signal with GST-Dm-Relish and with GST-Aq-NF-kB were 0.678 z-score and 3.27 z-score, respectively.
Take “CCGATTAACATCAAACGTTCCCCTGATGTTAATCGGGTCTTGATTCGCTTGACGCTGCTG”: the binding signal with GST-Dm-Relish was found to be 3.29 z-score; with GST-Aq-NF-kB it was 4.66 z-score.
Consider “CCGATTAACATCAAGTAATCCCCTGATGTTAATCGGGTCTTGATTCGCTTGACGCTGCTG”, for which the results for the binding signal with GST-Dm-Relish and with GST-Aq-NF-kB were 7.56 z-score and 6.04 z-score, respectively.
For the sequence “CCGATTAACATCAGGGGAATGGATGATGTTAATCGGGTCTTGATTCGCTTGACGCTGCTG”, the binding signal is 1.71 z-score with GST-Dm-Relish and 4.07 z-score in the assay with GST-Aq-NF-kB.
Consider “CCGATTAACATCACGTCCCCCCCTGATGTTAATCGGGTCTTGATTCGCTTGACGCTGCTG”, for which the binding signal was determined as 4.38 z-score with GST-Dm-Relish and 4.49 z-score in the assay with GST-Aq-NF-kB.
On to “CCGATTAACATCAAAAAAACCCCTGATGTTAATCGGGTCTTGATTCGCTTGACGCTGCTG”, for which the binding signal with GST-Dm-Relish turned out to be 9.78 z-score; with GST-Aq-NF-kB, 8.79 z-score.
“CCGATTAACATCAAGCATTTCCCTGATGTTAATCGGGTCTTGATTCGCTTGACGCTGCTG”: the binding signal with GST-Dm-Relish amounted to 0.924 z-score; in the assay with GST-Aq-NF-kB, 3.63 z-score.
In the same order, the values of “CCGATTAACATCAAAAATCTCCCTGATGTTAATCGGGTCTTGATTCGCTTGACGCTGCTG” are 2.94 z-score and 6.14 z-score.
For “CCGATTAACATCAAGAACTTCCCTGATGTTAATCGGGTCTTGATTCGCTTGACGCTGCTG”, the figures for the binding signal with GST-Dm-Relish and in the assay with GST-Aq-NF-kB were 2.86 z-score and 4.6 z-score, respectively.
With “CCGATTAACATCAGGGTAAAACCTGATGTTAATCGGGTCTTGATTCGCTTGACGCTGCTG”, the results for the binding signal in the assay with GST-Dm-Relish and with GST-Aq-NF-kB were 3.45 z-score and 6.02 z-score, respectively.
On to “CCGATTAACATCAGGCCATCCCCTGATGTTAATCGGGTCTTGATTCGCTTGACGCTGCTG”, for which the binding signal with GST-Ap-NF-kB RHD came to 3.87 z-score.
On to “CCGATTAACATCAGGGTTTCCCATGATGTTAATCGGGTCTTGATTCGCTTGACGCTGCTG”, for which the binding signal in the assay with GST-Dm-Relish is 8.13 z-score; in the assay with GST-Aq-NF-kB, 4.6 z-score.
Consider “CCGATTAACATCAGGGAATTAAATGATGTTAATCGGGTCTTGATTCGCTTGACGCTGCTG”, for which the binding signal in the assay with GST-Ap-NF-kB RHD was 2.06 z-score; in assay [1], 4.46 z-score.
On the same counts, the results for “CCGATTAACATCAAAATTCCCTGTGATGTTAATCGGGTCTTGATTCGCTTGACGCTGCTG” are 4.81 z-score and 6.86 z-score.
As for “CCGATTAACATCACATTGTCCCCTGATGTTAATCGGGTCTTGATTCGCTTGACGCTGCTG”, the binding signal in the assay with GST-Ap-NF-kB RHD was 4.03 z-score; in assay [1] it was 4.18 z-score.
On to “CCGATTAACATCAAACCACCCCCTGATGTTAATCGGGTCTTGATTCGCTTGACGCTGCTG”, for which the binding signal was 3.91 z-score in the assay with GST-Ap-NF-kB RHD and 3.14 z-score in assay [1].
As for “CCGATTAACATCAAGGGGAATTCTGATGTTAATCGGGTCTTGATTCGCTTGACGCTGCTG”, the binding signal in the assay with GST-Ap-NF-kB RHD worked out at 10.3 z-score; in assay [1], 11.3 z-score.
With “CCGATTAACATCAAGGGGAAAATTGATGTTAATCGGGTCTTGATTCGCTTGACGCTGCTG”, the results for the binding signal (in the assay with GST-Ap-NF-kB RHD; in assay [1]) were 7.28 z-score and 8.8 z-score, respectively.
In the case of “CCGATTAACATCACGGGGATCCCTGATGTTAATCGGGTCTTGATTCGCTTGACGCTGCTG”, the values for the binding signal (in the assay with GST-Ap-NF-kB RHD; in assay [1]) were 8.72 z-score and 5.48 z-score, respectively.
On to “CCGATTAACATCAAAAATTCCAGTGATGTTAATCGGGTCTTGATTCGCTTGACGCTGCTG”, for which the binding signal with GST-Ap-NF-kB RHD was 0.126 z-score; in assay [1], 0.572 z-score.
Take “CCGATTAACATCAGAAAATACCCTGATGTTAATCGGGTCTTGATTCGCTTGACGCTGCTG”: the results for the binding signal (with GST-Ap-NF-kB RHD; in assay [1]) were 5.86 z-score and 8.27 z-score, respectively.
Consider “CCGATTAACATCAGGCTTCCCCCTGATGTTAATCGGGTCTTGATTCGCTTGACGCTGCTG”, for which the binding signal in the assay with GST-Ap-NF-kB RHD is 5.74 z-score; in assay [1], 5.65 z-score.
On the same counts, the results for “CCGATTAACATCAGGGGGTGATATGATGTTAATCGGGTCTTGATTCGCTTGACGCTGCTG” are 3.88 z-score and 3.66 z-score.
Consider “CCGATTAACATCAGGGGGGTAAATGATGTTAATCGGGTCTTGATTCGCTTGACGCTGCTG”, for which the binding signal came out at 4.89 z-score with GST-Ap-NF-kB RHD and 4.22 z-score in assay [1].
Take “CCGATTAACATCAGGAGTGCCCCTGATGTTAATCGGGTCTTGATTCGCTTGACGCTGCTG”: the binding signal in the assay with GST-Ap-NF-kB RHD was found to be 2.63 z-score; in assay [1] it was 2.03 z-score.
As for “CCGATTAACATCAGGGAGTTTTATGATGTTAATCGGGTCTTGATTCGCTTGACGCTGCTG”, the binding signal was found to be 5.33 z-score with GST-Ap-NF-kB RHD and 7.35 z-score in assay [1].
As to “CCGATTAACATCACCCCACCCCCTGATGTTAATCGGGTCTTGATTCGCTTGACGCTGCTG”, the results for the binding signal (with GST-Ap-NF-kB RHD; in assay [1]) were 3.67 z-score and 2.66 z-score, respectively.
On to “CCGATTAACATCAGGGAATTACATGATGTTAATCGGGTCTTGATTCGCTTGACGCTGCTG”, for which the binding signal in the assay with GST-Ap-NF-kB RHD was 4.01 z-score; in assay [1], 5.15 z-score.
On the same counts, the results for “CCGATTAACATCAAAAAACCCCATGATGTTAATCGGGTCTTGATTCGCTTGACGCTGCTG” are 6.53 z-score and 7.08 z-score.
